This is one part of the list. The energies were worked out here from pooled read counts, against the library average; single values are noisy.

In the experiment the target is T1, Pho4 (S. cerevisiae) (UniProt P07270).
T1 sequence: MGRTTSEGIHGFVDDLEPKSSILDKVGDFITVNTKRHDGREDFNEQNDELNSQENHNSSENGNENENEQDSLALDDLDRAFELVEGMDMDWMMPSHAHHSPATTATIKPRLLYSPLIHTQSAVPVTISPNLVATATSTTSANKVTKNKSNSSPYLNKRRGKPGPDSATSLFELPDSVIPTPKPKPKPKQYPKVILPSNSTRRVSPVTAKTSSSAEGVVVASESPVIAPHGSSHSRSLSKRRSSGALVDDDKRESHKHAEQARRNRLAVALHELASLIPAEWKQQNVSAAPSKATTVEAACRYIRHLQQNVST
As to the kind of experiment: relative binding free energy (BET-seq); higher = weaker binding. To be noted: reference: library average.
Take ACTCGCACGTGTGGGT: the “relative binding free energy” value was -0.05 kcal/mol.
To ATATACACGTGGTCTG belongs -0.05 kcal/mol; to TTGAACACGTGAGTTA, 0.3 kcal/mol.
In the case of GCTTTCACGTGGTGTA, the “relative binding free energy” value came out at 0.24 kcal/mol.
For the sequence ATGTACACGTGGATCT, the “relative binding free energy” value was determined as 0.08 kcal/mol.
Next, TTGAGCACGTGAGAAT: 0.18 kcal/mol; GGTGTCACGTGGGAAG: 0.03 kcal/mol.
As for GGTTGCACGTGTAGCA, the “relative binding free energy” value worked out at 0.15 kcal/mol.
On to AAGTGCACGTGCAGGT, for which the “relative binding free energy” value was found to be 0.08 kcal/mol.
Next, GGGATCACGTGTGGTA: 0.2 kcal/mol; GTGGCCACGTGAGGGG: 0.06 kcal/mol.
To GGTAACACGTGGGTTC belongs -0.02 kcal/mol; to GCGTTCACGTGAGGAG, 0.41 kcal/mol; to AGTAGCACGTGATGAT, 0.11 kcal/mol.
To TTCAACACGTGTAGTT belongs 0.14 kcal/mol; to ATATTCACGTGTTATA, 0.09 kcal/mol; to TTTTACACGTGGGTGA, 0.06 kcal/mol.
On to GTAAGCACGTGAGTGT, for which the “relative binding free energy” value turned out to be 0.07 kcal/mol.
Consider GGTTACACGTGCTGAA, for which the “relative binding free energy” value worked out at 0.23 kcal/mol.
To GTCGTCACGTGTCAGT belongs 0.24 kcal/mol; to TGTGTCACGTGTCGTC, 0.03 kcal/mol; to ATTGCCACGTGGAGTT, -0.05 kcal/mol.
Consider AGGGTCACGTGTTTAG, for which the “relative binding free energy” value was determined as 0.12 kcal/mol.
To GATGGCACGTGGTGTG belongs -0.17 kcal/mol; to GGGTGCACGTGATTAA, 0.2 kcal/mol.
Next, GTGTACACGTGAATAT: 0.4 kcal/mol; GGTCTCACGTGATTGG: 0.4 kcal/mol.
TCTTGCACGTGAGGTC: the “relative binding free energy” value stood at 0.24 kcal/mol.
As for GGTCGCACGTGTTGGA, the “relative binding free energy” value is -0.03 kcal/mol.
Next, TCTTGCACGTGTGTTT: 0.18 kcal/mol.
GGATGCACGTGGAGTA: the “relative binding free energy” value is -0.13 kcal/mol.
To GGTAACACGTGTTGCG belongs -0.03 kcal/mol; to TTTGACACGTGCGGTT, -0.08 kcal/mol.
With TATTCCACGTGTTAAT, the “relative binding free energy” value came to 0.12 kcal/mol.
On to GTGGTCACGTGAGGGC, for which the “relative binding free energy” value amounted to 0.31 kcal/mol.
Take AGGTGCACGTGGTTTA: the “relative binding free energy” value is -0.05 kcal/mol.
As for TTAGGCACGTGGTAAG, the “relative binding free energy” value worked out at 0 kcal/mol.
To CGGTGCACGTGTGGGT belongs 0.06 kcal/mol.
For the sequence TGCAACACGTGGTGTG, the “relative binding free energy” value is -0.05 kcal/mol.
TGAGTCACGTGTAACT: the “relative binding free energy” value was determined as 0.21 kcal/mol.
In the case of GTTACCACGTGGTTAG, the “relative binding free energy” value was -0.08 kcal/mol.
On to AAGTGCACGTGGGATG, for which the “relative binding free energy” value is -0.13 kcal/mol.
Next, AGTAGCACGTGTCTTG: -0.06 kcal/mol; AAAGTCACGTGGGGTG: 0.01 kcal/mol.
To TTCGCCACGTGTTGAG belongs 0.05 kcal/mol; to AGCGGCACGTGCGGGA, -0.15 kcal/mol; to GTAGGCACGTGAGAAG, 0.01 kcal/mol.
Consider TTGTCCACGTGGGTTC, for which the “relative binding free energy” value was 0.06 kcal/mol.
In the case of TTCGTCACGTGTTTGC, the “relative binding free energy” value was 0 kcal/mol.
As for GTTATCACGTGCGATG, the “relative binding free energy” value turned out to be 0.18 kcal/mol.
As to ACGCGCACGTGGGGAG, the “relative binding free energy” value was -0.31 kcal/mol.
As to TTCGTCACGTGACGGT, the “relative binding free energy” value was 0.13 kcal/mol.
On to AAGGGCACGTGTGTAC, for which the “relative binding free energy” value was -0.17 kcal/mol.
Next, GGGCTCACGTGGTGTT: 0.27 kcal/mol; ACGTACACGTGGGAGG: -0.21 kcal/mol; CGATTCACGTGAAGGT: 0.45 kcal/mol.
Consider TGTCACACGTGGGGCT, for which the “relative binding free energy” value is -0.28 kcal/mol.
For CTCTGCACGTGTTTTG, the “relative binding free energy” value worked out at 0 kcal/mol.
Next, ATGTCCACGTGGGGGG: -0.25 kcal/mol; AGGGACACGTGCTATT: 0.05 kcal/mol; GTATTCACGTGTTTTT: 0.28 kcal/mol.
Next, ATTAGCACGTGGATGA: 0 kcal/mol; TGTCCCACGTGGGGTT: -0.3 kcal/mol; TTTGGCACGTGCTCGT: -0.21 kcal/mol.
To TCTATCACGTGTGTTT belongs 0.14 kcal/mol.
Consider GATGGCACGTGGTAGT, for which the “relative binding free energy” value was -0.11 kcal/mol.
As for AATGTCACGTGTTTTT, the “relative binding free energy” value is 0.18 kcal/mol.
For the sequence TCTTGCACGTGTAATG, the “relative binding free energy” value was found to be 0.13 kcal/mol.
Turning to AGGCGCACGTGAGGTT, the “relative binding free energy” value worked out at 0.11 kcal/mol.
Regarding GAGGTCACGTGTGCGC, the “relative binding free energy” value was determined as 0.12 kcal/mol.
As for CTGAACACGTGGGGTT, the “relative binding free energy” value is -0.14 kcal/mol.
ACGGGCACGTGGATGA: the “relative binding free energy” value is -0.13 kcal/mol.
As to CTGTGCACGTGAGGTT, the “relative binding free energy” value amounted to 0.03 kcal/mol.
Consider GCGATCACGTGGTTGA, for which the “relative binding free energy” value stood at 0.26 kcal/mol.
Next, AGATCCACGTGTGGCG: 0.16 kcal/mol; GGATGCACGTGGCATT: -0.03 kcal/mol; TTGTGCACGTGAGAAC: 0.37 kcal/mol.
TTACGCACGTGGATGG: the “relative binding free energy” value was -0.12 kcal/mol.
On to GTAGACACGTGTGTAA, for which the “relative binding free energy” value came out at 0.02 kcal/mol.
As to TGTTACACGTGATCTA, the “relative binding free energy” value stood at 0.19 kcal/mol.
For ATAGGCACGTGTAATA, the “relative binding free energy” value stood at 0.15 kcal/mol.
Next, TTTGTCACGTGGATTT: 0.15 kcal/mol; TGAGGCACGTGAATGG: 0.04 kcal/mol.
On to GTGATCACGTGGGTGG, for which the “relative binding free energy” value came to 0.09 kcal/mol.
GGTCACACGTGGGTAG: the “relative binding free energy” value was -0.05 kcal/mol.
Take GTGTCCACGTGATGGA: the “relative binding free energy” value stood at 0.27 kcal/mol.
Consider GGTTTCACGTGTTACA, for which the “relative binding free energy” value was 0.18 kcal/mol.
Turning to TTGCCCACGTGAGGTG, the “relative binding free energy” value was determined as 0.14 kcal/mol.
As to AATATCACGTGGGGCA, the “relative binding free energy” value was -0.02 kcal/mol.
Consider GGGCGCACGTGGGGGG, for which the “relative binding free energy” value is -0.11 kcal/mol.
Turning to AGTTGCACGTGGGCAG, the “relative binding free energy” value was -0.09 kcal/mol.
On to GAGACCACGTGTTGGG, for which the “relative binding free energy” value was 0 kcal/mol.
As to GAGTGCACGTGAAGTT, the “relative binding free energy” value was determined as 0.37 kcal/mol.
Next, GTTCCCACGTGGGTTG: -0.18 kcal/mol.
As to CTTGCCACGTGTGTTG, the “relative binding free energy” value was -0.16 kcal/mol.
As for GAAATCACGTGTTGTT, the “relative binding free energy” value came out at 0.08 kcal/mol.
Turning to TTTTCCACGTGCGGGG, the “relative binding free energy” value amounted to 0.07 kcal/mol.
Take CGGTTCACGTGTCAGT: the “relative binding free energy” value was 0.28 kcal/mol.
To GAGTTCACGTGAAGGG belongs 0.39 kcal/mol.
To GTTTACACGTGCGTGC belongs 0.1 kcal/mol; to TGAAACACGTGTAAGG, 0.1 kcal/mol.
As for TATTGCACGTGGTTGT, the “relative binding free energy” value is -0.07 kcal/mol.
Next, TATGGCACGTGGGAGC: -0.26 kcal/mol; TGTAACACGTGCAGTT: 0.07 kcal/mol; TTAGACACGTGTCTGT: 0.03 kcal/mol.
As to ATGGGCACGTGCGGGA, the “relative binding free energy” value is -0.2 kcal/mol.
To GGTCTCACGTGGATAG belongs 0.34 kcal/mol; to ATTCGCACGTGGGAAT, -0.11 kcal/mol.
As to AATTGCACGTGGTCAG, the “relative binding free energy” value came out at 0.03 kcal/mol.
To GTGACCACGTGAGGGG belongs 0.15 kcal/mol.
In the case of TGTTGCACGTGTCAGG, the “relative binding free energy” value came out at 0.03 kcal/mol.
With AGTGACACGTGAGTGC, the “relative binding free energy” value worked out at 0.17 kcal/mol.
Regarding TTATTCACGTGCGGAA, the “relative binding free energy” value came out at 0.18 kcal/mol.
Consider GGGTCCACGTGACTTG, for which the “relative binding free energy” value is 0.25 kcal/mol.
Consider CGGTCCACGTGGTGGA, for which the “relative binding free energy” value was -0.15 kcal/mol.

The values above are taken from the BET-seq Pho4 binding data (Le et al. 2018).
